Laboratory results from PubChem BioAssay AID493208 (National Center for Advancing Translational Sciences (NCATS), 2011).
The whole screen tested about 44,000 compounds, of which about 340 (0.77%) were called active. Not shown: some 5% with an inconclusive outcome. Calls follow the shape of the dose curve; as a rule, active = well fitted inhibition curve with a large enough effect; inconclusive = small, poorly fitted or top-dose-only effect; inactive = flat fitted curve, though single readings scatter. This is one part of the list.

assay: Acumen qHTS Assay for Inhibitors of the mTORC1 Signaling Pathway in MEF (Tsc2-/-, p53-/-) Cells: Sytravon; details: phospho-rpS6 immunofluorescence/PI, 24 h; series mostly up to 38.3 µM; activity change, negative = inhibition: at the top concentration;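 also: plate controls were DMSO for no effect and rapamycin for full effect; nearly all actives have a fitted effect of over 50% in size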
Method in brief: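 Tsc2-/-, p53-/- MEFs (empty-vector stable line) in DMEM + 10% FBS were treated with compounds 24 h at 37 degree Celsius, fixed, and immunostained for phospho-rpS6 (Alexa-488) with propidium iodide counterstain. Laser-scanning cytometry gave % positive cells, normalized against 7.5 nM rapamycin and DMSO.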

Row | SMILES | activity change, negative = inhibition
1 | COc1ccc(-n2c(SCC(=O)N3CCc4ccccc43)nc3c([nH]c4ccccc43)c2=O)cc1 | inactive: 3.66%
2 | CCOC(=O)C1CCCN(C(=O)Cn2ncc3c(C)n(Cc4ccccc4Cl)c(C)c3c2=O)C1 (configuration not stated) | inactive: -12.8%
3 | CCc1ccc(CNC(=O)c2cc3ccccn3n2)cc1 | inactive: -2.52%
4 | CCCc1nc2ccccc2n1CC(O)COc1ccc(C(=O)OC)cc1 (configuration not stated) | inactive: 13.6%
5 | CCC1CCCCN1S(=O)(=O)c1ccc(C(=O)Nc2sc3c(c2C(N)=O)CCC3)cc1 (configuration not stated) | inactive: 0.203%
6 | O=C(CSc1nnc(-c2ccccc2F)o1)Nc1cccc(C(F)(F)F)c1 | inactive: 0.154%
7 | O=C(Nc1ccc(Cl)cc1F)c1cnc2sc(N3CCOCC3)nn2c1=O | inactive: -11.7%
8 | COc1ccc(C2C(C(=O)Nc3ccc(Cl)cc3)=C(C)Nc3nc(SCc4cccc(C)c4)nn32)cc1OC (configuration not stated) | inactive: -2.72%
9 | COCCCN1C(=O)c2ccccc2CC1(C)C(=O)NC1CCCCC1 (configuration not stated) | inactive: -8.82%
10 | COc1ccc(-c2nc(C)c(CCNC(=O)c3cccs3)s2)cc1OC | inactive: -2.36%
11 | COc1ccccc1CNc1cc(C)nc2nc(-c3ccc(C)cc3)nn12 | inactive: -9.03%
12 | CC(C)(C)OC(=O)N1CCC(c2c(C(=O)N3CCN(c4ccccn4)CC3)cnn2-c2ccccc2)CC1 | inactive: -5.45%
13 | c1ccc(-c2noc(-c3cccnc3NCc3ccco3)n2)cc1 | inactive: 1.83%
14 | COCCNC(=O)Cn1c(=O)n(CCCCCC(=O)NCc2ccccc2Cl)c(=O)c2sccc21 | inactive: 6.87%
15 | Cc1cccc(Cn2c(SCc3ccc(C(=O)NCc4ccccc4F)cc3)nc3ccncc32)c1 | inactive: -5.65%
16 | Cc1ccc(NC(=O)Cn2c(=O)oc3cc(S(=O)(=O)N4CCCCC4)ccc32)c(Cl)c1 | inactive: -12.2%
17 | CCN(CC)CCCNC(=O)CCCn1ncn2c(cc3occc32)c1=O | inactive: 0.229%
18 | COc1ccc(CN(C(=O)c2cc3ccccc3oc2=O)C2CCS(=O)(=O)C2)cc1OC (configuration not stated) | inactive: 0.871%
19 | CC1CCCCN1C(=O)Cn1ncc2c3ccccc3n(Cc3ccccc3F)c2c1=O (configuration not stated) | inactive: -0.766%
20 | CC(C)(C)C1CCc2c(sc3nc(-c4cc5ccccc5oc4=O)[nH]c(=O)c23)C1 (configuration not stated) | inactive: -24.2%
21 | Cc1c(-c2cccc(NC(=O)Nc3ccc(Cl)cc3)c2)nc2ncccn12 | inactive: 1.41%

Row | SMILES | activity change, negative = inhibition
22 | COc1ccccc1-c1noc(-c2ccc(NC3CCCCC3)c([N+](=O)[O-])c2)n1 | inactive: 1.43%
23 | COCCCNC(=O)c1cnc2sc(N3CCCCCC3)nn2c1=O | inactive: -9.62%
24 | Cc1ccc2c(c1)-c1c(cnn1CC(=O)N1CCN(c3ccccc3F)CC1)CO2 | inactive: -8.08%
25 | CCCCN(CCCNC(=O)CN1N=C(c2ccc(C)cc2)CCC1=O)c1ccccc1 | inactive: -13.4%
26 | COc1cccc(NC(=O)CCc2nc3c(C)nn(-c4ccc(C)cc4)c3n(C)c2=O)c1 | inactive: 0%
27 | O=c1c(=O)n(Cc2ccc(Cl)cc2)ccn1Cc1ccc(F)cc1 | inactive: -19.3%
28 | COc1cccc(OCC(=O)NCCS(=O)(=O)N2CCN(c3ccccc3F)CC2)c1 | inactive: -1.9%
29 | COc1ccc(-c2cn3cccnc3n2)cc1NC(=O)Cc1ccccc1 | inactive: 0.0433%
30 | Cc1ccc(-c2nc(CNC(=O)Nc3ccccc3)c(C)o2)cc1 | inactive: 13%
31 | CCN(CC)C(=O)CSc1nc2ccsc2c(=O)n1Cc1ccccc1Cl | inactive: -0.0151%
32 | CCc1nc2cccnc2n1-c1ccc(CC(=O)Nc2c(C)cccc2C)cc1 | inactive: -4.42%
33 | Cc1cc(C)n2c(Nc3ccc(C(C)C)cc3)c(-c3ccsc3)nc2n1 | inactive: -21.2%
34 | CCOC(=O)c1ccc(NC(=O)Cn2cnc3sc(C(=O)OCC)c(C)c3c2=O)cc1 | inactive: -3.89%
35 | CCc1ccc(NC(=O)CSc2nc3c([nH]c4ccccc43)c(=O)n2-c2cccc(OC)c2)cc1 | inactive: -0.0441%
36 | CCCCCn1c(=O)c2c(nc3n2CCN3c2ccc(Br)cc2)n(C)c1=O | inactive: 7.13%
37 | COc1cc(C)ccc1OCCSc1nc2ccc(NC(C)=O)cc2s1 | inactive: -5.57%
38 | CCC(Sc1nnc2c3ccccc3n(C)c2n1)C(=O)Nc1nnc(C(C)C)s1 (configuration not stated) | inactive: 8.06%
39 | COc1ccc(-c2cc3ccc(O)c(CN4CCCC4)c3oc2=O)cc1OC | inactive: 1.88%
40 | Cc1ccc(C)c(CNC(=O)c2sc3ncnc(N(C)C4CCCCC4)c3c2C)c1 | inactive: -2.26%
41 | COC(=O)COc1ccc(Oc2nc(NC(C)(C)C)nc(N(C)C)n2)nn1 | inactive: -0.97%
42 | Cc1cc(F)ccc1NC(=O)CCSc1nc(-c2ccco2)cc(C(F)(F)F)n1 | inactive: 3.89%

Row | SMILES | activity change, negative = inhibition
43 | COc1ccc(CNC(=O)c2cn(-c3cccc(OC)c3)c(=O)c3ccccc23)cc1 | inactive: 4.5%
44 | Cc1ccc(C(=O)NC2(C(F)(F)F)N=C(c3ccccc3)N(C3CCCCC3)C2=O)cc1 (configuration not stated) | inactive: -7.34%
45 | CCOC(=O)c1c(C)c(-c2ccccc2)n(CC(=O)Nc2cccc(C)c2C)c1C | inactive: 0.791%
46 | CC(=O)Nc1ccc(Nc2ncnc3sc4c(c23)CCCC4)cc1 | inactive: -3.52%
47 | CCc1cc2c(cc3c(=O)n(CC(=O)NCCOC)nc(CC)n32)s1 | inactive: -1.22%
48 | Cc1ccc2nc(N(Cc3cccnc3)C(=O)CCOc3ccccc3)sc2c1 | inactive: -2.67%
49 | Cc1cccc(C(=O)N2CCc3cc(CNS(=O)(=O)c4cccs4)ccc32)c1 | inactive: -8.31%
50 | O=C(O)c1ccc(C2Nc3ccccc3-c3nnc(SCc4ccc(Cl)cc4)nc3O2)cc1 (configuration not stated) | inactive: 1.32%
51 | CCCN1C(=O)C2(c3ccccc31)c1c(oc3ccccc3c1=O)C(=O)N2CCCOC(C)C (configuration not stated) | inactive: -5.82%
52 | Cc1cccc(-c2nc(SCC(=O)N(C)c3ccccc3)c3c(=O)n(C)c(=O)n(C)c3n2)c1 | inactive: 2.88%
53 | O=C(c1ccco1)N1CCN(C(=O)c2cnn(-c3cccc(F)c3)c2C2CCNCC2)CC1 | inactive: 7.95%
54 | Cn1c(=O)cc(SCC(=O)N2CCN(c3ccccc3)CC2)c2ccccc21 | inactive: -2.46%
55 | COc1cccc(C(=O)Nc2ccc(C(=O)OCc3cc(=O)n4nc(C5CC5)sc4n3)cc2)c1 | inactive: 4.56%
56 | COc1cc(OC)c(NC(=O)N2CC=C(c3c[nH]c4ccccc34)CC2)cc1Cl | inactive: -14.7%
57 | O=C(Cn1c(=O)n2nc(-c3cccc(F)c3)nc2c2ccccc21)N1CCN(c2ccccc2F)CC1 | inactive: 1.09%
58 | O=C(c1cccc(Cl)c1)N1CCC(c2nc3ccccc3o2)CC1 | inactive: 0.124%
59 | COc1ccc(OC)c(NC(=O)c2c(C)oc3ncnc(N4CCOCC4)c23)c1 | inactive: -1.47%
60 | CC1CCN(C(=O)C(C)Sc2nc(-c3ccccc3)cc(C(F)(F)F)n2)CC1 (configuration not stated) | inactive: 3.35%
61 | CCCCn1c(=O)nc2n(-c3ccc(F)cc3)c3ccccc3cc-2c1=O | inactive: 5.81%
62 | Cc1ccc(-c2cc(C(F)(F)F)n3ncc(-c4ccc(Cl)cc4)c3n2)cc1 | inactive: -1.03%
